The campaign covered roughly 410,000 compounds. About 5,000 (1.2%) were called active. The shares of active, inactive and inconclusive entries below differ from those in the screen. Calls follow the shape of the dose curve; as a rule, active = well fitted inhibition curve with a large enough effect; inconclusive = small, poorly fitted or top-dose-only effect; inactive = no such curve, though single readings can be large or run the other way. Potencies of inconclusive entries are doubtful fits and often do not repeat.
Test: qHTS for Inhibitors of TGF-b; also: nearly all actives have a fitted effect of over 65% in size
Details: HepG2 CAGA-GFP TGF-b/SMAD3 reporter, GFP fluorescence, 18 h, TGF-beta stimulated, 500 pg/mL final; series mostly up to 46.1 µM
Method in brief: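 Per well, imaged GFP fluorescence of HEPG2 CAGA-GFP cells gives the signal; cells get compound, then TGF-beta (500 pg/mL final), 18 h at 37 degrees C; %Activity versus -TGF-beta and +DMSO controls.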
In the case of `CCC(Sc1nc2ccccc2c2nc(CCc3c(C)n[nH]c3C)nn12)C(=O)Nc1ccc(F)cc1` (stereo unspecified), the Potency is reported as “inactive”. In the case of `CCC(C)[C@H](NC(=O)N1CC(=O)Nc2ccccc21)C(=O)N1CCC[C@H]1C(=O)O` (stereo partly specified), the Potency is reported as “inactive”. For `c1ccc(-n2nnnc2NC2CCCCC2)cc1`, the Potency was inconclusive: 31.6 µM [inhibitor, single point]. For `CCN(CC)C(=O)C1=C(C)N(Cc2ccccc2)C(=O)C(CC(=O)NCCCCc2ccccc2)C1` (stereo unspecified), the Potency was “inactive”. In the case of `CC(=O)Nc1ccc(NC2=CC(=O)c3ccccc3C2=O)cc1`, the Potency is reported as inconclusive: 3.55 µM [inhibitor, single point]. With `COc1ccc2c(c1)c(C(=O)CN1CCN(c3ccccc3)CC1)c(C)n2C` the Potency was inconclusive: 35.5 µM [inhibitor, single point]. With `Cc1ccc(S(=O)(=O)Nc2ccc3c(c2)nc2n3CCN(Cc3ccccc3)C2)cc1` the Potency was “inactive”. For `c1ccc(CCNc2nc(-c3ccccn3)nc3ccccc23)cc1`, the Potency was inconclusive: 12.6 µM [inhibitor, single point]. For `C=CCn1c(=S)[nH]c2cc(C(=O)N3CCN(c4ccccc4OC)CC3)ccc2c1=O`, the Potency was inconclusive: 10 µM [inhibitor, partial curve, poor fit]. For `CCCNC(=O)c1ccc2c(c1)N=C(C)c1c(C)ccc(C)c1S2`, the Potency was inconclusive: 7.08 µM [inhibitor, full curve, poor fit]. For `Cc1ccc(Cc2c(-c3cccc(Cl)c3)nc3ccc(Br)cn23)cc1`, the Potency was inconclusive: 35.5 µM [inhibitor, single point]. In the case of `O=C(NCc1ccccn1)C(=O)NCC(c1ccco1)N1CCOCC1` (stereo unspecified), the Potency is reported as inconclusive: 0.112 µM [inhibitor, full curve, poor fit]. For `CN(C)CCCN(Cc1ccccc1)C(=S)Nc1ccc(OC(F)F)cc1`, the Potency was inconclusive: 15.8 µM [inhibitor, single point]. For `CC(C)(C)OC(=O)N1CCC(c2c(C(=O)NCCN3CCC(Cc4ccccc4)CC3)cnn2-c2cccc(Cl)c2)CC1`, the Potency was inconclusive: 1.41 µM [inhibitor, full curve]. With `Cc1cc2oc(=O)cc(-c3ccccc3)c2c(C)c1-c1ccc(F)c(Cl)c1` the Potency was inconclusive: 0.0282 µM [inhibitor, full curve, poor fit]. For `COc1cc2cnc(-c3ccccc3)c(C(=O)c3ccc(OCc4ccccc4)cc3)c2cc1OC`, the Potency was inconclusive: 7.08 µM [inhibitor, partial curve]. With `Cc1cccc(N2CCN(C(=O)c3cc(S(=O)(=O)N4CCC(C)CC4)cn3C)CC2)c1C` the Potency was inconclusive: 35.5 µM [inhibitor, single point]. For `Cc1cccc(N2CCN(C(=O)c3ccc4nc(-c5ccco5)c(-c5ccco5)nc4c3)CC2C)c1` (stereo unspecified), the Potency was inconclusive: 12.6 µM [inhibitor, partial curve, poor fit]. With `COc1ccc2[nH]c(C)c(C(=O)CN(C)CC(OC)OC)c2c1` the Potency was inconclusive: 35.5 µM [inhibitor, single point]. For `O=C(Nc1ccccc1F)c1nc(S(=O)(=O)Cc2ccccc2F)ncc1Cl`, the Potency was active: 4.47 µM. For `O=C(NCCCC1CCCC1)C1CCC(=O)N(Cc2cccc(C(F)(F)F)c2)C1` (stereo unspecified), the Potency was inconclusive: 17.8 µM [inhibitor, single point]. For `Cc1cc(C)c(C)c(OCCCOc2cccc3cccnc23)c1`, the Potency was inconclusive: 35.5 µM [inhibitor, single point]. In the case of `Cc1nc2ccc(Br)cn2c1NC(C)(C)C`, the Potency is reported as “inactive”. With `Clc1cccc(-n2ncc3c(NC4CCCCC4)ncnc32)c1` the Potency was inconclusive: 31.6 µM [inhibitor, single point]. With `CC1(C(=O)Nc2cnc3ccccc3c2)CCN1Cc1ccc2ccccc2c1` (stereo unspecified) the Potency was inconclusive: 22.4 µM [inhibitor, single point]. With `CCOc1ccc(-c2nnc(SCC(=O)NC3CCCC3)nc2-c2ccc(OCC)c(OC)c2)cc1OC` the Potency was “inactive”. In the case of `Cc1cccc(CNc2ncnc3ccc(-c4ccc5c(c4)OCO5)cc23)c1`, the Potency is reported as inconclusive: 22.4 µM [inhibitor, single point]. In the case of `CC1Cc2nc(SCC(=O)Nc3nc4ccccc4s3)n(C)c(=O)c2S1` (stereo unspecified), the Potency is reported as inconclusive: 11.2 µM [inhibitor, partial curve, poor fit]. With `O=C(NCC(O)c1nc2ccccc2[nH]1)c1cc2ccccc2[nH]1` (stereo unspecified) the Potency was “inactive”. For `O=C(CCN1C(=O)NC2(CCCC2)C1=O)Nc1ccc(-c2nc3ccccc3s2)cc1`, the Potency was inconclusive: 0.447 µM [inhibitor, full curve, poor fit]. With `O=C(Nc1ccc2c(c1)CCCN2C(=O)c1cccs1)c1cccc(C(F)(F)F)c1` the Potency was “inactive”. In the case of `CCCOP(=O)(OCCC)c1c([N+](=O)[O-])cc(C(F)(F)F)cc1[N+](=O)[O-]`, the Potency is reported as inconclusive: 35.5 µM [inhibitor, single point]. With `Fc1ccc2[nH]c3c(N4CCN(Cc5ccc6c(c5)OCO6)CC4)ncnc3c2c1` the Potency was active: 17.8 µM. With `O=C(Nc1ccc(N2CCCC2)c(S(=O)(=O)Nc2cccc(C(F)(F)F)c2)c1)c1cccs1` the Potency was inconclusive: 35.5 µM [inhibitor, single point]. In the case of `COc1ccccc1CN1CC(C(=O)N2CCN(c3ccc(F)cc3)CC2)CC1=O` (stereo unspecified), the Potency is reported as inconclusive: 35.5 µM [inhibitor, single point]. In the case of `CCN(CC)c1nn2c(=O)c(C(=O)NCc3ccc(OC)cc3OC)cnc2s1`, the Potency is reported as inconclusive: 11.2 µM [inhibitor, partial curve, poor fit]. For `Clc1ccccc1N1CCN(c2ncnc3c2c(-c2ccccc2)cn3-c2ccccc2)CC1`, the Potency was “inactive”. For `CCCn1c(/N=C/c2c[nH]c3ccccc23)nc2ccccc21`, the Potency was inconclusive: 20 µM [inhibitor, single point]. For `CN(C)/C=C(\C#N)C(=O)N/N=C/c1ccc(F)cc1`, the Potency was “inactive”. In the case of `Cc1ccccc1NC(=O)CCC(=O)N1CCSc2ccccc21`, the Potency is reported as inconclusive: 0.199 µM [inhibitor, full curve, poor fit]. In the case of `CC(C)(C)c1ccc(S(=O)(=O)N2CCC(c3nc4ccc(Cl)cc4[nH]3)CC2)cc1`, the Potency is reported as active: 20 µM. For `COc1cc(C(=O)NC2CCN(C)CC2)ccc1Nc1ncc2c(n1)N(C1CCCCC1)CCC(=O)N2C`, the Potency was inconclusive: 35.5 µM [inhibitor, single point]. For `COc1cccc(/C(O)=C/C(=O)C(=O)Nc2ccc(S(=O)(=O)NC(C)=O)cc2)c1`, the Potency was inconclusive: 0.794 µM [inhibitor, partial curve]. With `CCc1nc2ccccc2c(C(=O)OCC(=O)Nc2ccc(S(=O)(=O)N3CCOCC3)cc2)c1C` the Potency was inconclusive: 35.5 µM [inhibitor, single point]. With `COc1cccc(NC(=O)C2(C)CCN2Cc2ccccc2OC(F)F)c1` (stereo unspecified) the Potency was “inactive”. In the case of `O=C(NC1CCS(=O)(=O)C1)c1ccc(Br)s1` (stereo unspecified), the Potency is reported as “inactive”. For `CCCCNC(=O)c1ccc(Cn2c(=S)[nH]c3c([nH]c4ccc(OC)cc43)c2=O)cc1`, the Potency was inconclusive: 12.6 µM [inhibitor, partial curve, poor fit]. With `COc1ccc(-c2csc(NC(=O)Cc3ccccc3F)n2)c(OC)c1` the Potency was inconclusive: 17.8 µM [inhibitor, single point]. In the case of `CCCN(Cc1cccs1)C(=O)Nc1cc(C)ccc1OC`, the Potency is reported as “inactive”. In the case of `CCC(C(=O)N1CCCC1)n1nc(C)c2c(C)n(-c3ccccc3)nc2c1=O` (stereo unspecified), the Potency is reported as inconclusive: 2.82 µM [inhibitor, partial curve, poor fit]. For `O=C(Nc1sc2c(c1C(=O)NCCO)CCCC2)c1ccco1`, the Potency was “inactive”. With `Brc1ccc(Cn2c(-c3ccc(Br)o3)nc3ccccc32)o1` the Potency was inconclusive: 35.5 µM [inhibitor, single point]. In the case of `COc1ccc(CCC(C)NCCc2ccc(Cl)cc2Cl)cc1` (stereo unspecified), the Potency is reported as inconclusive: 35.5 µM [inhibitor, single point]. With `Cc1ccc(-c2onc(C)c2C)cc1S(=O)(=O)NCc1cccs1` the Potency was “inactive”. With `COc1cccc(CN2CCCC(N3CCc4ccccc4C3)C2)c1O` (stereo unspecified) the Potency was “inactive”. With `Cc1ccc(C(=O)CN2C(=O)NC3(CCCCCC3)C2=O)c(C)c1` the Potency was “inactive”. In the case of `CCCCN1CC(c2nc3ccccc3n2CCCCOc2ccccc2C)CC1=O` (stereo unspecified), the Potency is reported as inconclusive: 11.2 µM [inhibitor, partial curve, poor fit]. With `CC(=O)OC1=CN(Cc2ccccc2)S(=O)(=O)c2ccccc21` the Potency was inconclusive: 7.94 µM [inhibitor, partial curve]. With `CC1CC2=C(NC(=S)NC2c2ccc(F)cc2)/C(=C/c2ccc(F)cc2)C1` (stereo unspecified) the Potency was inconclusive: 35.5 µM [inhibitor, single point]. For `Cc1ccc(C)c(Cn2c(=O)n(-c3ccc(Cl)cc3)c(=O)c3c4c(sc32)CCC4)c1`, the Potency was inconclusive: 14.1 µM [inhibitor, single point]. For `COc1ccc(CNC(=O)NC(C)(C)c2cccc(C(C)(C)NC(=O)NCc3ccc(OC)cc3)c2)cc1`, the Potency was “inactive”. In the case of `CC1CC=CC2C1C(=O)N(Cc1ccccc1)C2c1cccc([N+](=O)[O-])c1` (stereo unspecified), the Potency is reported as inconclusive: 11.2 µM [inhibitor, partial curve, poor fit]. With `COc1ccc(NC(=O)CSc2nc3ncccc3[nH]2)cc1OC` the Potency was “inactive”. With `CC(C)(C)NNC(=S)Nc1cccc(C(F)(F)F)c1` the Potency was inconclusive: 6.31 µM [inhibitor, single point]. With `COc1cccc(NC(=O)c2c(-c3ccc(C)cc3)nnc3ccccc23)c1` the Potency was “inactive”. For `C/C=C\C=C\C(=O)Nc1cccc(C2=NOC3(C2)C[C@H](C(N)=O)N(C(=O)c2ccccc2C(=O)c2ccccc2)C3)c1` (stereo partly specified), the Potency was inconclusive: 22.4 µM [inhibitor, single point].

From PubChem BioAssay AID588855 (National Center for Advancing Translational Sciences (NCATS), 2011)
Potency is read from the fitted curve at half-maximal effect; tags tell the direction and shape of the fitted curve.
